This note sets out measurements from publication PMC9911399, “Two distinct binding modes provide the RNA-binding protein RbFox with extraordinary sequence specificity”.

Changes are numbered by the printed parent chain; changes in the protein carry UniProt numbers. Some of the results follow.

In experiment [1] the target is T1, RBFOX1 RRM (Homo sapiens, UniProt Q9NWB1 109-208).
T1 sequence: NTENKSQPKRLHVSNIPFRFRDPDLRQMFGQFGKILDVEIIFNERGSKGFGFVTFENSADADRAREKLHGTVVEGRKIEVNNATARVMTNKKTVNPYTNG
The experiment is described as follows: EMSA; HiTS-Eq, 1 nM pool, 10 min; buffer printed only for the single-RNA assays: 10 mM Tris pH 7.5, 150 mM NaCl, 3.4 mM EDTA, 0.001% NP-40, 30 C. The note with it: tags: His6 N-terminal (pET28a); label: 5' 32P. The gist of the method: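 Relative association constants, normalised to the cognate motif, were derived by comparing read counts of each RNA species with those of the control reaction. The RNA sequenced was the free fraction, separated by 8% native PAGE after a 10 min equilibration in 50 µL of 1 nM 5′-radiolabelled RNA (7 randomized nucleotides) with increasing concentrations of purified wild-type or mutant RbFox RRM.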
Background: Mobility shift assays separate free from complexed probe on a gel.

Experiment [2] concerns the target T1, RBFOX1 RRM. Nature of the experiment: competition; 10 mM Tris pH 7.5, 150 mM NaCl, 3.4 mM EDTA, 0.001% NP-40, 30 C. The note with it: tags: His6 N-terminal (pET28a).

B1: AAAACUG (DNA:RNA)
RNA: GGGAGACCGGAAUUCAGAUUGUCCAAAACUGUUAAAUCCCGUCGUAGCCACCA
DNA 1: CAATCTGAATTCCGGTCTCCC
DNA 2: TGGTGGCTACGACGGGATT
Consider B1, for which the binding signal with RBFOX1 RRM [1] was 0.00327 KA relative to UGCAUGU.

B2: UCUAUCU (DNA:RNA)
RNA: B1 RNA with A25U, A26C, A27U, C29U, U30C, G31U
DNA 1: CAATCTGAATTCCGGTCTCCC
DNA 2: TGGTGGCTACGACGGGATT
As to B2, in the experiment with RBFOX1 RRM [1], the binding signal was 0.00434 KA relative to UGCAUGU.

B3: CUAUUGA (DNA:RNA)
RNA: B1 RNA with A25C, A26U, A28U, C29U, U30G, G31A
DNA 1: CAATCTGAATTCCGGTCTCCC
DNA 2: TGGTGGCTACGACGGGATT
Consider B3, for which the binding signal in the experiment with RBFOX1 RRM [1] is 0.0108 KA relative to UGCAUGU.

B4: GCCCCUC (DNA:RNA)
RNA: B1 RNA with A25G, A26C, A27C, A28C, G31C
DNA 1: CAATCTGAATTCCGGTCTCCC
DNA 2: TGGTGGCTACGACGGGATT
Regarding B4, the binding signal in the experiment with RBFOX1 RRM [1] is 0.00515 KA relative to UGCAUGU.

B5: GCAUGCC (DNA:RNA)
RNA: B1 RNA with A25G, A26C, A28U, C29G, U30C, G31C
DNA 1: CAATCTGAATTCCGGTCTCCC
DNA 2: TGGTGGCTACGACGGGATT
B5: in the experiment with RBFOX1 RRM [1], the binding signal is 0.829 KA relative to UGCAUGU.

B6: AGCCAGA (DNA:RNA)
RNA: B1 RNA with A26G, A27C, A28C, C29A, U30G, G31A
DNA 1: CAATCTGAATTCCGGTCTCCC
DNA 2: TGGTGGCTACGACGGGATT
As for B6, the binding signal with RBFOX1 RRM [1] is 0.0106 KA relative to UGCAUGU.
UGCAUAU (ssRNA): the binding signal in the experiment with RBFOX1 RRM [2] amounted to 1780 nM.

B7: GGCCGUU (DNA:RNA)
RNA: B1 RNA with A25G, A26G, A27C, A28C, C29G, G31U
DNA 1: CAATCTGAATTCCGGTCTCCC
DNA 2: TGGTGGCTACGACGGGATT
Take B7: the binding signal in the experiment with RBFOX1 RRM [1] was 0.0141 KA relative to UGCAUGU.

B8: UGGCUUA (DNA:RNA)
RNA: B1 RNA with A25U, A26G, A27G, A28C, C29U, G31A
DNA 1: CAATCTGAATTCCGGTCTCCC
DNA 2: TGGTGGCTACGACGGGATT
Take B8: the binding signal in the experiment with RBFOX1 RRM [1] is 0.0196 KA relative to UGCAUGU.

B9: CAACGUC (DNA:RNA)
RNA: B1 RNA with A25C, A28C, C29G, G31C
DNA 1: CAATCTGAATTCCGGTCTCCC
DNA 2: TGGTGGCTACGACGGGATT
Turning to B9, the binding signal in the experiment with RBFOX1 RRM [1] is 0.00397 KA relative to UGCAUGU.

B10: CACAUUG (DNA:RNA)
RNA: B1 RNA with A25C, A27C, C29U
DNA 1: CAATCTGAATTCCGGTCTCCC
DNA 2: TGGTGGCTACGACGGGATT
Consider B10, for which the binding signal with RBFOX1 RRM [1] was 0.00617 KA relative to UGCAUGU.

B11: CGCGUUA (DNA:RNA)
RNA: B1 RNA with A25C, A26G, A27C, A28G, C29U, G31A
DNA 1: CAATCTGAATTCCGGTCTCCC
DNA 2: TGGTGGCTACGACGGGATT
Regarding B11, the binding signal in the experiment with RBFOX1 RRM [1] is 0.00577 KA relative to UGCAUGU.

B12: ACUCGUU (DNA:RNA)
RNA: B1 RNA with A26C, A27U, A28C, C29G, G31U
DNA 1: CAATCTGAATTCCGGTCTCCC
DNA 2: TGGTGGCTACGACGGGATT
Take B12: the binding signal with RBFOX1 RRM [1] is 0.00477 KA relative to UGCAUGU.

B13: CACUGGG (DNA:RNA)
RNA: B1 RNA with A25C, A27C, A28U, C29G, U30G
DNA 1: CAATCTGAATTCCGGTCTCCC
DNA 2: TGGTGGCTACGACGGGATT
As for B13, in the experiment with RBFOX1 RRM [1], the binding signal was 0.0063 KA relative to UGCAUGU.

B14: CUGUGAA (DNA:RNA)
RNA: GGGAGACCGGAAUUCAGAUUGUCCCUGUGAAUUAAAUCCCGUCGUAGCCACCA
DNA 1: CAATCTGAATTCCGGTCTCCC
DNA 2: TGGTGGCTACGACGGGATT
Consider B14, for which the binding signal in the experiment with RBFOX1 RRM [1] was 0.0116 KA relative to UGCAUGU.

B15: UCAUCAA (DNA:RNA)
RNA: B14 RNA with C25U, U26C, G27A, G29C
DNA 1: CAATCTGAATTCCGGTCTCCC
DNA 2: TGGTGGCTACGACGGGATT
Turning to B15, the binding signal with RBFOX1 RRM [1] is 0.00154 KA relative to UGCAUGU.

B16: GCCGGGG (DNA:RNA)
RNA: B1 RNA with A25G, A26C, A27C, A28G, C29G, U30G
DNA 1: CAATCTGAATTCCGGTCTCCC
DNA 2: TGGTGGCTACGACGGGATT
Consider B16, for which the binding signal with RBFOX1 RRM [1] is 0.0252 KA relative to UGCAUGU.

B17: GUGCAGA (DNA:RNA)
RNA: B14 RNA with C25G, U28C, G29A, A30G
DNA 1: CAATCTGAATTCCGGTCTCCC
DNA 2: TGGTGGCTACGACGGGATT
Consider B17, for which, in the experiment with RBFOX1 RRM [1], the binding signal was 0.0216 KA relative to UGCAUGU.

B18: CUCGGAA (DNA:RNA)
RNA: B14 RNA with G27C, U28G
DNA 1: CAATCTGAATTCCGGTCTCCC
DNA 2: TGGTGGCTACGACGGGATT
For B18, the binding signal with RBFOX1 RRM [1] was 0.00851 KA relative to UGCAUGU.

B19: GAAUCCC (DNA:RNA)
RNA: B1 RNA with A25G, A28U, U30C, G31C
DNA 1: CAATCTGAATTCCGGTCTCCC
DNA 2: TGGTGGCTACGACGGGATT
As for B19, the binding signal with RBFOX1 RRM [1] is 0.0102 KA relative to UGCAUGU.
